Laboratory results from PubChem BioAssay AID504332 (National Center for Advancing Translational Sciences (NCATS), 2011).
The whole screen tested about 350,000 compounds, of which about 31,000 (8.9%) were called active. The inconclusive results got no clear call from the source; some entries with a clear call stand among them for comparison. Calls come from the whole dose curve; as a rule, active = well fitted inhibition curve with a large enough effect; inconclusive = small, poorly fitted or top-dose-only effect; inactive = no such curve, though single readings can be large or run the other way. Potencies of inconclusive entries are doubtful fits and often do not repeat.

molecular target: Histone-lysine N-methyltransferase EHMT2 (Homo sapiens) (UniProt Q96KQ7); assay: qHTS Assay for Inhibitors of Histone Lysine Methyltransferase G9a; conditions: G9a H3K9 monomethylation, AlphaScreen, 2 h; activity, negative = inhibition: at 59 µM (top of the series) unless noted; note: nearly all actives have a fitted effect of over 75% in size
In short: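 AlphaScreen read-out: biotin-H3K9 peptide (500 nM) methylation by 20 nM enzyme with 20 uM SAM, 2 h at room temperature after 15 min compound preincubation; anti-monomethyl H3K9 antibody plus donor/acceptor beads, 10 min dark.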
% is set by controls: 0 for no effect and ±100 for the full control effect; potency is the fitted concentration of half-maximal effect; tags give direction and shape of the fitted curve.

Chain of UniProt Q96KQ7 (Q96KQ7 whole entry, looked up): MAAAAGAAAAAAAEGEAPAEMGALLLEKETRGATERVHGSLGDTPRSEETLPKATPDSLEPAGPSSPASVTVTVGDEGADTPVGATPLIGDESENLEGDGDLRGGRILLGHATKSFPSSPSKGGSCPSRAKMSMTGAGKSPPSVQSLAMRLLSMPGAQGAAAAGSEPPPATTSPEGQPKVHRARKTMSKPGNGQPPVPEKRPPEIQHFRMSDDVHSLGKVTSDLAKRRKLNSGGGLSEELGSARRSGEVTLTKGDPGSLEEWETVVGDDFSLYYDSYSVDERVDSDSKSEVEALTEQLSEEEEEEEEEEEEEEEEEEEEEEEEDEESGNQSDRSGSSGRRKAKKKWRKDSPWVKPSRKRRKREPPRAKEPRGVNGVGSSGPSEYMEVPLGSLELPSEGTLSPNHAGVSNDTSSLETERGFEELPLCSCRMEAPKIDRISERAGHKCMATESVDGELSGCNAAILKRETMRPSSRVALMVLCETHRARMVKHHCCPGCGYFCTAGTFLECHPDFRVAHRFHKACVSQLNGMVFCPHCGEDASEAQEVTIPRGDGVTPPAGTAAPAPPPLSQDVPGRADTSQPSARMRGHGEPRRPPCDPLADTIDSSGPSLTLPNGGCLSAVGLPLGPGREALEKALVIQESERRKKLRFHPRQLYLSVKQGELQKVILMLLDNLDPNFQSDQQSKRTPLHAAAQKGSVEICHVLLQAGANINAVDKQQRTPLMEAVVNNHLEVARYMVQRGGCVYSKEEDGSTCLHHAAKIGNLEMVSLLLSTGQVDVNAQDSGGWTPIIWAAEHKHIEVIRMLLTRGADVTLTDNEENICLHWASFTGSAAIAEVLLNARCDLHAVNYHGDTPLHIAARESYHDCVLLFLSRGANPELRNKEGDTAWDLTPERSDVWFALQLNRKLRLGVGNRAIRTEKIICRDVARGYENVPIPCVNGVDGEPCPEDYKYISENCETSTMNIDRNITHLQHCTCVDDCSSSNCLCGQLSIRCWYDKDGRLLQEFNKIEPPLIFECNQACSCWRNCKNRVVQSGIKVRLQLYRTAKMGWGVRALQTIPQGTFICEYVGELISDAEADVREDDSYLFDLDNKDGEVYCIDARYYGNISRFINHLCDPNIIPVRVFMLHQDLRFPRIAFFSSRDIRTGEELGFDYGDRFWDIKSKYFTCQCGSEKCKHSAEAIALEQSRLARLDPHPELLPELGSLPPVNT

Row | SMILES | Potency | activity, negative = inhibition
1 | CCOC(=O)C1CCN(C(=O)CN(c2ccc(Oc3ccccc3)cc2)S(C)(=O)=O)CC1 | inconclusive: 79.4 µM [inhibitor, single point] | 
2 | COc1ccc2ccccc2c1-c1sc(Nc2ccccc2)n[n+]1-c1ccc(F)cc1 | active: 50.1 µM | 
3 | CCc1ccc(CNC(=O)c2ccc(OC)c(OC3CCN(C(C)C)CC3)c2)nc1 | inconclusive: 25.1 µM [inhibitor, partial curve] | 
4 | CCn1c2ccccc2c2cc(CN3CCN(C(=O)c4ccco4)CC3)ccc21 | inconclusive: 10 µM [inhibitor, partial curve, poor fit] | 
5 | CC(=O)Oc1ccc2c(=O)c(N3C(=O)c4ccccc4C3=O)c(C)oc2c1C | inconclusive: 25.1 µM [inhibitor, partial curve, poor fit] | 
6 | Cc1cccc(NC(=O)/C(C#N)=C/c2ccc(Cl)cc2)n1 | inactive | 
7 | COc1ccc(C(=O)NCCC2=CCCCC2)cc1OC | inconclusive: 89.1 µM [inhibitor, single point] | 
8 | COc1ccc(NC(=O)C2=C(C)Nc3ncnn3C2c2ccc(O)cc2)cc1 (stereo not given) | inactive | 
9 | Cn1cc([N+](=O)[O-])c(C(=O)Nc2ccc3nc(-c4ccccc4)[nH]c3c2)n1 | inconclusive: 28.2 µM [inhibitor, single point] | 
10 | CN(C)C(CNC(=O)CSc1nc2sc3c(c2c(=O)n1C)CCCC3)c1ccccc1 (stereo not given) | inconclusive: 0.708 µM [inhibitor, single point] | 
11 | COc1ccccc1-c1nn2c(-c3ccccc3Cl)nnc2s1 | inconclusive: 70.8 µM [inhibitor, single point] | 
12 | Oc1ccc(NCc2cccc(OCc3ccccc3)c2)cc1 | active: 12.6 µM | 
13 | CCN(CC)S(=O)(=O)c1ccc(N2CCCCC2)c(NC(=O)/C=C/c2ccc(OC)c(OC)c2)c1 | inactive | 
14 | CCc1ccc(CNC(=O)Cc2ccc(NC(=O)N3CCSc4ncccc43)cc2)cc1 | inconclusive: 7.08 µM [inhibitor, single point] | 
15 | Clc1ccccc1-c1cc(COc2ccc3ccccc3c2)no1 | inactive | 
16 | CCCCOc1[nH]c2nc(-c3ccco3)n(Cc3ccco3)c(=N)c2c1C#N | inconclusive: 39.8 µM [inhibitor, partial curve] | 
17 | Cc1ccc(-n2c([O-])nc(-[n+]3ccccc3)c2C=O)cc1 |  | inconclusive: -66.2% [inhibitor]
18 | O=C(CSc1nnc(-c2ccc(O)cc2)o1)NNC(=O)c1ccncc1 | active: 17.8 µM | 
19 | c1ccc2c(N3CCOCC3)nc(N3CCOCC3)nc2c1 | inconclusive: 10 µM [inhibitor, partial curve, poor fit] | 
20 | CC(Nc1nc(N2CCN(S(C)(=O)=O)CC2)nc2ccccc12)c1ccccc1 (stereo not given) | inconclusive: 39.8 µM [inhibitor, single point] | 
21 | COC(=O)c1sccc1NC(=O)c1ccnn1C | inactive | 
22 | CCn1c(C(=O)NC(C)c2ccc3c(c2)OCCO3)cc2sccc21 (stereo not given) | inconclusive: 56.2 µM [inhibitor, partial curve, poor fit] | 
23 | O=C(Nc1ccc(CN2CCOCC2)cc1)c1ccc(Cl)cc1Cl | inactive | 

Row | SMILES | Potency | activity, negative = inhibition
24 | Cc1ccccc1-c1nc(CS(=O)(=O)CC(=O)N(C)C2CCCCC2)c(C)o1 | inconclusive: 28.2 µM [inhibitor, single point] | 
25 | FC(F)(F)c1ccnc(Sc2n[nH]c(C(F)(F)F)n2)c1 | inconclusive: 79.4 µM [inhibitor, single point] | 
26 | COC1(OC)N=C(N)C2(C#N)C(c3ccc(C)cc3)C12C#N (stereo not given) | inconclusive: 39.8 µM [inhibitor, single point] | 
27 | CCN(CC)c1nn2c(=O)c(C(=O)NCCc3ccccc3)cnc2s1 | inactive | 
28 | O=C1CN(c2nc(-c3cccnc3)nc3sc4c(c23)CCCC4)CCN1 | inconclusive: 50.1 µM [inhibitor, partial curve, poor fit] | 
29 | CS/C(=N\S(=O)(=O)c1cccs1)Nc1ccc(N2CCOCC2)cc1 | inconclusive: 31.6 µM [inhibitor, single point] | 
30 | COc1ccc(S(=O)(=O)N2CCN(c3ccccc3F)CC2)cc1-c1noc(C)n1 | active: 0.501 µM | 
31 | O=C1Nc2cccnc2N(C(=O)CCl)c2ccccc21 | inactive | 
32 | CC(NC(=O)/C(=C\c1ccco1)NC(=O)c1ccco1)C(=O)O (stereo not given) | active: 35.5 µM | 
33 | COc1cccc(NC(=S)NNC(=O)Cn2nc(C(F)(F)F)cc2C)c1 | active: 11.2 µM | 
34 | N#C/C(=C\c1ccncc1)c1nc2ccccc2o1 | inconclusive: 89.1 µM [inhibitor, single point] | 
35 | COC(=O)c1c(C)oc2ccc(N(C(=O)c3ccncc3)S(=O)(=O)c3ccc(C)cc3C)cc12 | inactive | 
36 | CCOC(=O)c1c(-c2ccccc2)oc2ccc(N(C(C)=O)S(=O)(=O)c3cc(C)ccc3C)cc12 | inactive | 
37 | O=C(Sc1cccc2cccnc12)c1ccc(F)cc1 | inconclusive: 50.1 µM [inhibitor, partial curve] | 
38 | CCOC(=O)c1[nH]c(C)c(CCC(=O)NCc2ccccc2)c1C | inactive | 
39 | CCN(CC)c1ccc(NC(=O)c2ccco2)c(C)c1 | inconclusive: 3.16 µM [inhibitor, single point] | 
40 | Cc1cc(C)c2nc(-c3ccncc3)cc(C(=O)N3CCN(Cc4ccccc4Cl)CC3)c2c1 | inconclusive: 56.2 µM [inhibitor, single point] | 
41 | CCS(=O)(=O)Nc1cccc(C2=NN(S(=O)(=O)c3ccccc3)C(c3ccco3)C2)c1 (stereo not given) | inconclusive: 56.2 µM [inhibitor, partial curve, poor fit] | 
42 | CN1CCC(OC(=O)COc2ccc(Cl)cc2Cl)CC1 | inconclusive: 7.94 µM [inhibitor, full curve] | 
43 | N#Cc1ccc(COC(=O)c2ccc(N3CCCC3)c([N+](=O)[O-])c2)cc1 | inconclusive: 17.8 µM [inhibitor, single point] | 
44 | CN1CCN(C(=S)NC(=O)c2ccc(S(=O)(=O)N3CCOCC3)cc2)CC1 | inconclusive: 3.98 µM [inhibitor, single point] | 
45 | CCN(Cc1ccccc1)S(=O)(=O)CCNC(=O)c1ccc(OC)cc1 | inactive | 
